Assay results from the supplement of paper PMC4604168 (melanoma cell lines).
Some of the results follow. Many values rest on one well or one pass, so single values are uncertain.

Assays:
Assay in all cases: cell count relative to DMSO control; melanoma cells; higher = more viable cells
Conditions in all cases: library dose: low library concentration; 72 h
[1] = system: WM115
[2] = system: WM1716
[3] = system: WM1745
[4] = system: WM3526
[5] = system: WM3619
[6] = system: WM451Lu
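Also: cell number obtained by counting DAPI-stained nuclei in high-throughput microscope images with image analysis software, screen run in 1,536-well plates.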

SMILES	cell count [1] [%]	cell count [2] [%]	cell count [3] [%]	cell count [4] [%]	cell count [5] [%]	cell count [6] [%]
NC1(c2ccc(-c3nc4ccn5c(=O)[nH]nc5c4cc3-c3ccccc3)cc2)CCC1 + O=C(O)c1ccc(-c2c[nH]c3ncc(-c4ccccc4)cc23)cc1C1CCCC1 [GSK650394] (first compound 0.4 µM, partner dose 0.16 µM)	84.8	95.9	91.2	70.5	103	98.2
NC1(c2ccc(-c3nc4ccn5c(=O)[nH]nc5c4cc3-c3ccccc3)cc2)CCC1 + CN(NC(=O)CC(=O)NN(C)C(=S)c1ccccc1)C(=S)c1ccccc1 [STA4783] (first compound 0.4 µM, partner dose 0.006 µM)	59.8	60.9	35.8	66.7	68.9	78.2
CS(=O)(=O)c1ccc(C(=O)Nc2ccc(Cl)c(-c3ccccn3)c2)c(Cl)c1 [vismodegib] + Nc1ccn([C@@H]2O[C@H](CO)[C@@H](O)C2(F)F)c(=O)n1 [gemcitabine] (first compound 1 µM, partner dose 0.0004 µM)	103	124	94.7	123	80.9	109
CN(c1ncccc1CNc1nc(Nc2ccc3c(c2)CC(=O)N3)ncc1C(F)(F)F)S(C)(=O)=O + COc1ccc(-c2ccc3c(N4CCOCC4)nc(N4C[C@@H](C)O[C@@H](C)C4)nc3n2)cc1CO [KU0063794] (first compound 0.08 µM, partner dose 0.02 µM)	85.9	81.1	86.7	84.8	112	84.2
CS(=O)(=O)c1ccc(C(=O)Nc2ccc(Cl)c(-c3ccccn3)c2)c(Cl)c1 [vismodegib] + CC(C)(C)c1cnc(CSc2cnc(NC(=O)C3CCNCC3)s2)o1 [SNS-032] (first compound 1 µM, partner dose 0.01 µM)	97.5	85.8	94.9	103	95.4	126
CCCS(=O)(=O)Nc1ccc(F)c(C(=O)c2c[nH]c3ncc(Cl)cc23)c1F + C[C@]1(c2nc3c(C(N)=O)cccc3[nH]2)CCCN1 [Veliparib] (first compound 0.08 µM, partner dose 1.4 µM)	79.4	103	85.7	78.1	90.3	83.2
NC1(c2ccc(-c3nc4ccn5c(=O)[nH]nc5c4cc3-c3ccccc3)cc2)CCC1 + Cc1cc([N+](=O)[O-])ccc1NS(=O)(=O)c1cc(Cl)ccc1Cl [FH535] (first compound 0.4 µM, partner dose 1 µM)	68.6	109	96	81.1	96.6	100
C=C(c1ccc(C(=O)O)cc1)c1cc2c(cc1C)C(C)(C)CCC2(C)C [Bexarotene] + O=C(O)C(=O)Nc1sc2c(c1C(=O)O)CCNC2 [TCS401] (first compound 2 µM, partner dose 1.66667 µM)	94.6	78.9	89.2	77.2	99.9	86.5
C=C(c1ccc(C(=O)O)cc1)c1cc2c(cc1C)C(C)(C)CCC2(C)C [Bexarotene] + CC1(C)NC(=O)N(c2ccc([N+](=O)[O-])c(C(F)(F)F)c2)C1=O [nilutamide] (first compound 2 µM, partner dose 1 µM)	91.8	85.4	94.4	89.9	96.8	88.5
NC1(c2ccc(-c3nc4ccn5c(=O)[nH]nc5c4cc3-c3ccccc3)cc2)CCC1 + O=S(=O)(c1ccccc1)N(CC(F)(F)F)c1ccc(C(O)(C(F)(F)F)C(F)(F)F)cc1 [T0901317] (first compound 0.4 µM, partner dose 1.4 µM)	88.1	83.1	88.9	69	87	113
CS(=O)(=O)c1ccc(C(=O)Nc2ccc(Cl)c(-c3ccccn3)c2)c(Cl)c1 [vismodegib] + Oc1nc(-c2ccc(C(F)(F)F)cc2)nc2c1CSCC2 [XAV939] (first compound 1 µM, partner dose 2 µM)	89.2	59.8	82	111	95.1	98.1
CN(c1ncccc1CNc1nc(Nc2ccc3c(c2)CC(=O)N3)ncc1C(F)(F)F)S(C)(=O)=O + Cn1c(=O)n(-c2ccc(C(C)(C)C#N)cc2)c2c3cc(-c4cnc5ccccc5c4)ccc3ncc21 [NVP-BEZ235] (first compound 0.08 µM, partner dose 0.004 µM)	76.5	98.1	84.1	95.1	88.4	65.9
CS(=O)(=O)c1ccc(C(=O)Nc2ccc(Cl)c(-c3ccccn3)c2)c(Cl)c1 [vismodegib] + Cc1cc([N+](=O)[O-])ccc1NS(=O)(=O)c1cc(Cl)ccc1Cl [FH535] (first compound 1 µM, partner dose 1 µM)	89.1	89.9	105	95.5	92.5	107
CS(=O)(=O)c1ccc(C(=O)Nc2ccc(Cl)c(-c3ccccn3)c2)c(Cl)c1 [vismodegib] + CCCCCCCCc1ccc(CCC(N)(CO)CO)cc1 [fingolimod] (first compound 1 µM, partner dose 2 µM)	86.8	89.2	87.4	105	89.4	98
CN(c1ncccc1CNc1nc(Nc2ccc3c(c2)CC(=O)N3)ncc1C(F)(F)F)S(C)(=O)=O + O=C(O)[C@@H]1[O][Sb](=[O])([O][Sb]2(=[O])[O][C@H]([C@H](O)CO)[C@H](O)[C@H](C(=O)O)[O]2)[O][C@H]([C@H](O)CO)[C@@H]1O [stibogluconate] (first compound 0.08 µM, partner dose 2 µM)	82	98.5	82.2	96.4	111	89.6
CS(=O)(=O)c1ccc(C(=O)Nc2ccc(Cl)c(-c3ccccn3)c2)c(Cl)c1 [vismodegib] + COc1ccc(-c2ccc3c(N4CCOCC4)nc(N4C[C@@H](C)O[C@@H](C)C4)nc3n2)cc1CO [KU0063794] (first compound 1 µM, partner dose 0.02 µM)	97.8	96.3	107	108	65.7	109
CN(c1ncccc1CNc1nc(Nc2ccc3c(c2)CC(=O)N3)ncc1C(F)(F)F)S(C)(=O)=O + C[C@@H](Oc1cc(-c2cnn(C3CCNCC3)c2)cnc1N)c1c(Cl)ccc(F)c1Cl [Crizotinib] (first compound 0.08 µM, partner dose 0.2 µM)	85.7	91.8	82.3	98.4	111	84.2
CN(c1ncccc1CNc1nc(Nc2ccc3c(c2)CC(=O)N3)ncc1C(F)(F)F)S(C)(=O)=O + CO[C@H]1C[C@@H]2CC[C@@H](C)[C@@](O)(O2)C(=O)C(=O)N2CCCC[C@H]2C(=O)O[C@H]([C@H](C)C[C@@H]2CC[C@@H](OCCO)[C@H](OC)C2)CC(=O)[C@H](C)/C=C(\C)[C@@H](O)[C@@H](OC)C(=O)[C@H](C)C[C@H](C)/C=C/C=C/C=C/1C [everolimus] (first compound 0.08 µM, partner dose 0.02 µM)	84.2	73.6	83.7	51.3	63.3	72.1
CN(c1ncccc1CNc1nc(Nc2ccc3c(c2)CC(=O)N3)ncc1C(F)(F)F)S(C)(=O)=O + CCCCCCCCCCCC1=C(O)C(=O)C=C(O)C1=O [Embelin] (first compound 0.08 µM, partner dose 1.2 µM)	77.5	91.3	75.2	95.6	98.8	77.8
CCCS(=O)(=O)Nc1ccc(F)c(C(=O)c2c[nH]c3ncc(Cl)cc23)c1F + C#Cc1cccc(Nc2ncnc3cc(OCCOC)c(OCCOC)cc23)c1 [erlotinib] (first compound 0.08 µM, partner dose 0.8 µM)	105	103	87	63.7	87.9	101
CCCS(=O)(=O)Nc1ccc(F)c(C(=O)c2c[nH]c3ncc(Cl)cc23)c1F + COc1cc2ncnc(Nc3ccc(Oc4ccccc4)cc3)c2cc1OC [SrcI1] (first compound 0.08 µM, partner dose 2 µM)	96.4	115	82	63.3	97.1	111
C=C(c1ccc(C(=O)O)cc1)c1cc2c(cc1C)C(C)(C)CCC2(C)C [Bexarotene] + O=c1cc(-c2cccc3c2Sc2ccccc2S3)oc(N2CCOCC2)c1 [KU55933] (first compound 2 µM, partner dose 1 µM)	91.3	106	102	92.8	104	105
NC1(c2ccc(-c3nc4ccn5c(=O)[nH]nc5c4cc3-c3ccccc3)cc2)CCC1 + COc1cc(N2CCC(N3CCN(C)CC3)CC2)ccc1Nc1ncc(Cl)c(Nc2ccccc2S(=O)(=O)C(C)C)n1 [NVP-TAE684] (first compound 0.4 µM, partner dose 0.08 µM)	92.4	102	96.3	76.1	107	97.2
C=C(c1ccc(C(=O)O)cc1)c1cc2c(cc1C)C(C)(C)CCC2(C)C [Bexarotene] + O=C(O)c1ccc(-c2c[nH]c3ncc(-c4ccccc4)cc23)cc1C1CCCC1 [GSK650394] (first compound 2 µM, partner dose 0.16 µM)	89.2	99.1	95.9	82	103	88.6
CCCS(=O)(=O)Nc1ccc(F)c(C(=O)c2c[nH]c3ncc(Cl)cc23)c1F + Cc1ccc(NC(=O)c2cccc(N(C)C)c2)cc1NC(=O)c1ccc(O)cc1 [ZM336372] (first compound 0.08 µM, partner dose 2 µM)	95.6	107	90.2	70.1	89.7	103
